The campaign covered roughly 370,000 compounds. About 150 (0.041%) were called active. The inconclusive results got no clear call from the source; some entries with a clear call stand among them for comparison. The call rests on the fitted dose curve; in most records, active means well fitted inhibition curve with a large enough effect; inconclusive means small, poorly fitted or top-dose-only effect; inactive means flat fitted curve, though single readings scatter. No potency is given beside an inconclusive call; the fits are too rough.
biological target: Beta-lactamase (Escherichia coli (strain K12)) (UniProt P00811); experiment: qHTS Inhibitors of AmpC Beta-Lactamase (assay with detergent); settings: AmpC hydrolysis of nitrocefin, absorbance 480 nm, 0.01% Triton; series mostly up to 114 µM; further: nearly all actives have a fitted effect of over 25% in size
UniProt P00811, sequence (P00811 whole entry, looked up): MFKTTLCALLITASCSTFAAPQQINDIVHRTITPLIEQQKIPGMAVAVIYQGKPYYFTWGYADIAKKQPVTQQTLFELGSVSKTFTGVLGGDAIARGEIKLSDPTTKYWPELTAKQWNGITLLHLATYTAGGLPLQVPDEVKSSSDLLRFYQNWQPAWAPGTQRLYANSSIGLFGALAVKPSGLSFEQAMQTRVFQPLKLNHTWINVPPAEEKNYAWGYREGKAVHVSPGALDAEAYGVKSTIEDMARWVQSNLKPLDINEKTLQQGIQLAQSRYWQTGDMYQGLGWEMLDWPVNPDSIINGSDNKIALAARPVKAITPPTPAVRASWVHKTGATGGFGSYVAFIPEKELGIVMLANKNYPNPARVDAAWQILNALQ
In short: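 20 mM phosphate pH 7.0 + 0.01% (detergent screen) or 0.0001% Triton X-100; 5.3 nM AmpC reagent; cpd preinc 15 min RT; nitrocefin (800 uM stock) to start; A480 q20 s × 4 min; Activity was normalised to no-enzyme and no-compound control wells.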
Potency means the concentration at half of the fitted maximal effect; tags describe the fitted curve by direction and shape.

Compound | Potency
O=C1CCCC1C(=O)Nc1ccc2ccccc2c1 (configuration not stated) | inactive
CCc1cccc(NC(=O)Cn2ncn3c(cc4ccccc43)c2=O)c1 | inconclusive [inhibitor, full curve, poor fit]
COc1ccc(-c2nn(-c3ccccc3)cc2C(=O)NCCCn2ccnc2)cc1 | inconclusive [inhibitor, full curve, poor fit]
COC(=O)c1ccc(NC(=O)CCN2C(=O)C3CC=CCC3C2=O)cc1 (configuration not stated) | inconclusive [inhibitor, partial curve, poor fit]
CC1CCN(CC(O)COc2ccc(C(=O)c3ccccc3)cc2)CC1 (configuration not stated) | inconclusive [inhibitor, partial curve, poor fit]
CCC(C)(C)NC(=O)C(c1ccc(OC)cc1)N(C(=O)CCC(=O)Nc1cc(C)on1)c1ccccc1OC (configuration not stated) | inconclusive [inhibitor, full curve, poor fit]
COc1ccc(C(=O)N2CCCC(Nc3ccc(F)cc3)C2)cc1F (configuration not stated) | inconclusive [inhibitor, full curve, poor fit]
Cc1nc(C)c(CCNS(=O)(=O)c2ccc(C)c(C)c2)s1 | inactive
CCOc1ccccc1NC(=O)c1c(NCc2ccc(C)o2)sc2c1CCCCC2 | inactive
O=C(Cn1cnc2c(cnn2-c2ccc(F)cc2)c1=O)NCCc1ccccc1 | inconclusive [inhibitor, full curve, poor fit]
Cc1nc(-c2ccccc2)c(-c2ccccc2)[nH]1 | inconclusive [inhibitor, full curve]
Cc1ccc(CNC(=O)Cc2csc(Nc3nc(=S)[nH]c4ccccc34)n2)cc1 | inactive
Cn1c(NC(=O)c2ccc(F)c(F)c2)cc(=O)n(C)c1=O | inconclusive [inhibitor, full curve, poor fit]
O=C(NC1CCN(C(=O)NCc2ccccc2)CC1)c1ccco1 | inconclusive [inhibitor, partial curve, poor fit]
COc1cc(CNc2ccc3[nH]c(=O)[nH]c3c2)ccc1OCC(=O)NC(C)(C)C | inconclusive [inhibitor, full curve, poor fit]
Brc1ccc(OCCCCCN2CCOCC2)cc1 | inconclusive [inhibitor, single point]
CCC(=O)c1cc2c(cc1NC(=O)c1ccccc1)OCCO2 | inactive
O=C(CSc1n[nH]c(-c2ccccn2)n1)Nc1ccccc1F | inactive
Cc1cc(C)c2c(N)c(C(=O)Nc3ccccc3Br)sc2n1 | inconclusive [inhibitor, full curve, poor fit]
Oc1c(C(c2cccs2)N2CCN(c3cccc(Cl)c3)CC2)sc2ncnn12 (configuration not stated) | inconclusive [inhibitor, full curve]
CC(C)(C=O)Cc1cc(C(C)(C)C)c(O)c(C(C)(C)C)c1 | inconclusive [inhibitor, full curve, poor fit]

Compound | Potency
Cc1ccc(-c2nc3ccccc3c(=O)n2NC(=O)c2cccs2)cc1 | inconclusive [inhibitor, partial curve]
O=C(O)C1CCC(c2ccc(-c3ccccc3)cc2)CC1 (configuration not stated) | inactive
Clc1nnc(NN=C2CCCC2)c2ccccc12 | inconclusive [inhibitor, full curve, poor fit]
CC(C)CNC(=S)NNC(=O)c1nn(C)cc1Cl | inconclusive [inhibitor, single point]
Cc1cc(NC(=O)CSc2nc(-c3cccs3)cc(C(F)(F)F)n2)no1 | inconclusive [inhibitor, full curve]
Cc1[nH]n(-c2ccccc2)c(=O)c1CCOC(=O)c1cccc(C(F)(F)F)c1 | inconclusive [inhibitor, full curve, poor fit]
CCOC(=O)CN(C)C(=O)CCc1nnc(-c2ccc(-c3ccccc3)cc2)o1 | inconclusive [inhibitor, partial curve, poor fit]
CCOC(=O)c1c(NC(=O)CSc2nc3ccccc3[nH]2)sc2c1CC(C)(C)NC2(C)C | inconclusive [inhibitor, partial curve, poor fit]
COCCn1c(SCC(=O)N2CCCCC2)nc2cccnc21 | inconclusive [inhibitor, full curve, poor fit]
COc1cc(C(O)c2nc3ccccc3s2)cc(OC)c1OC (configuration not stated) | inactive
CCCCSCc1ccc(C(=O)O)o1 | inconclusive [inhibitor, full curve]
O=C(Nc1ccc2sccc2c1)c1ccc(Cl)s1 | inconclusive [inhibitor, full curve]
CN(c1ccccc1)S(=O)(=O)c1cccc(C(=O)NC2CCCCC2)c1 | inconclusive [inhibitor, partial curve, poor fit]
Cc1cc(C)cc(C(=O)Nc2ccc(N3CCCC3)cc2)c1 | inactive
CN1C2C=C3C(C#N)=C(N)C(C#N)(C#N)C(c4ccc(Br)cc4)C3C1CC2 (configuration not stated) | inconclusive [inhibitor, single point]
CCc1ccc(NC(=O)N(C2CCCCC2)C(C)c2cccnc2)cc1 (configuration not stated) | inconclusive [inhibitor, partial curve, poor fit]
CCN(CC)S(=O)(=O)c1cc(NC(=O)CSc2nc3c(cc2C#N)C(=O)CC(C)(C)C3)ccc1C | inconclusive [inhibitor, partial curve, poor fit]
COc1ccc(C(C(=O)NCc2ccccc2)N(Cc2ccc3c(c2)OCO3)C(=O)c2cnccn2)cc1 (configuration not stated) | inconclusive [inhibitor, full curve, poor fit]
CC1(C)CC(=O)C(C=Nc2ccc(O)cc2)=C(O)C1 | inactive
Cc1cc(-c2ccccc2)nc2[n+]1CCN2C | inconclusive [inhibitor, full curve, poor fit]
COc1ccc(-c2c(=O)n(OCc3ccccn3)c3ccccc3[n+]2[O-])cc1OC | inconclusive [inhibitor, full curve, poor fit]
